Laboratory results taken from PubChem BioAssay AID504832 (National Center for Advancing Translational Sciences (NCATS), 2011).
Hit rate of the full screen: of about 310,000 compounds, about 18,000 (5.8%) were called active. This list was built around the results that the source calls inconclusive (neither active nor inactive); the mix of calls is not that of the screen. Calls follow the shape of the dose curve; as a rule, active = well fitted inhibition curve with a large enough effect; inconclusive = small, poorly fitted or top-dose-only effect, or another doubt; inactive = no such curve, though single readings can be large or run the other way. No potency is given beside an inconclusive call; the fits are too rough.
% is scaled to controls: 0 for no effect and ±100 for the full control effect; potency is read from the fitted curve at half-maximal effect; tags tell the direction and shape of the fitted curve.

Experiment: Primary qHTS for delayed death inhibitors of the malarial parasite plastid, 48 hour incubation
Conditions: P. falciparum luciferase growth in erythrocytes; series mostly up to 28.7 µM; activity change, negative = inhibition: at the top concentration
Method in brief: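 Cell-based growth assay: transgenic P. falciparum expressing firefly luciferase, cultured in red cells within RPMI 1640 containing 0.5% w/v Albumax, 24 mM bicarbonate and gentamycin. A drop in luciferase activity indicates inhibition.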
For `Cc1cc2cc(CCNC(=O)c3ccc(S(=O)(=O)N4CCOCC4)cc3)c(=O)[nH]c2cc1C`, the Potency was inconclusive [inhibitor, full curve, poor fit]. With `CCc1cc(SC#N)cc(C)c1N` the Potency was active: 8.28 µM. For `Cc1ccc(-c2c[n+](CC(=O)Nc3nc(-c4ccc(F)cc4)cs3)c3n2CCC3)cc1`, the Potency was inconclusive [inhibitor, single point]. For `CC(C)Oc1cccc(C(=O)NC(=S)Nc2ccccc2)c1`, the “activity change, negative = inhibition” value was inactive: 266%. With `CN(C(=O)CN1CCN(c2cnn(-c3ccccc3)c(=O)c2Cl)CC1)C1CCS(=O)(=O)C1` (stereo not given) the Potency was inconclusive [inhibitor, partial curve]. For `C/C(=N/NC(=O)c1cccs1)c1ccc(NC(=O)COc2ccc(Cl)cc2)cc1`, the “activity change, negative = inhibition” value was inactive: -0.0161%. With `Cc1ccc2c(CC(=O)Nc3cccc(S(=O)(=O)N4CCOCC4)c3)coc2c1` the Potency was inconclusive [inhibitor, full curve, poor fit]. In the case of `COc1cc(C(c2c(NC(=O)c3ccco3)sc(C)c2C)N2CCOCC2)cc(OC)c1OC` (stereo not given), the Potency is reported as active: 10.4 µM. In the case of `Cc1nc2ncnn2c(N2CCN(C(c3ccccc3)c3ccccc3)CC2)c1C`, the Potency is reported as inconclusive [inhibitor, partial curve, poor fit]. For `O=S(=O)(NC1CCCCC1N1CCN(c2ccccc2F)CC1)c1ccc(Cl)cc1` (stereo not given), the Potency was inconclusive [inhibitor, single point]. With `Cc1cc(NC(=O)CSCC(=O)N(C)Cc2c(F)cccc2Cl)no1` the Potency was inconclusive [inhibitor, partial curve, poor fit]. In the case of `O=C(c1cc(F)ccc1F)C1CCCN(C(=O)c2ccc(F)cc2Cl)C1` (stereo not given), the “activity change, negative = inhibition” value is reported as inactive: -12.7%. With `CCOc1ccc(C(=O)/C=C/c2ccc(OC)c(OC)c2)cc1` the Potency was inconclusive [inhibitor, single point]. For `Cc1cc(=O)[nH]c(N/N=C/c2ccc([N+](=O)[O-])cc2)n1`, the “activity change, negative = inhibition” value was inactive: -2.19%. In the case of `COc1ccc(/C=N/Nc2snc(SC)c2C#N)cc1OC`, the Potency is reported as active: 4.15 µM. For `O=C(N/N=C/c1ccccc1C(=O)O)c1cccc(S(=O)(=O)Nc2cc(Cl)ccc2Cl)c1`, the “activity change, negative = inhibition” value was inactive: -2.52%. For `O=C(N/N=C/c1ccoc1)c1ccc(Cl)cc1`, the Potency was active: 2.62 µM. For `CCC1CN(C(=O)N2CCC(C(=O)NCc3ccc(C)o3)CC2)c2ccccc2O1` (stereo not given), the “activity change, negative = inhibition” value was inactive: -4.45%. For `CCOC(=O)c1sc(Nc2nc(OC)cc(OC)n2)nc1C`, the Potency was inconclusive [inhibitor, single point]. For `Cc1csc(N/N=C/c2ccc([N+](=O)[O-])cc2)n1`, the “activity change, negative = inhibition” value was inactive: 67%. In the case of `CC(c1nnnn1C(C)(C)C)N(Cc1cccnc1)Cc1ccccc1Cl` (stereo not given), the Potency is reported as active: 13.1 µM. With `CC1CCN(C(=O)CSc2nnc(CNC(=O)c3ccc(F)cc3)o2)CC1` the “activity change, negative = inhibition” value was inactive: 7.04%. With `CCNC(=S)NNC(=O)c1ccccn1` the Potency was inconclusive [inhibitor, single point]. With `N#Cc1ccc(C(=O)Nc2cccc(NC(=O)c3ccco3)c2)c(F)c1` the Potency was inconclusive [inhibitor, partial curve, poor fit]. With `CCN(CC)CC(=O)Nc1cc(N(C)C)nc2ccccc12` the “activity change, negative = inhibition” value was inactive: -2.54%. In the case of `CC1CCCC(NC(=O)CCC(=O)c2ccc(F)cc2)C1C` (stereo not given), the Potency is reported as inconclusive [inhibitor, single point]. For `CCCCNC(=O)N1CCN(c2ccnc3cc(Cl)ccc23)CC1`, the Potency was active: 4.65 µM. In the case of `CCOC(=O)c1nnn(CC(=O)N2N=C(c3ccc(Cl)cc3)CC2c2ccc(OC)cc2)c1C(=O)OCC` (stereo not given), the Potency is reported as inconclusive [inhibitor, partial curve]. For `FC(F)(F)c1cccc(NC(=S)N(CCCN2CCCC2)Cc2cccn2Cc2ccc(Cl)cc2)c1`, the Potency was inconclusive [inhibitor, partial curve, poor fit]. For `CSCc1cc(N(C)C)nc(SCc2ccc(Cl)c(Cl)c2)n1`, the Potency was active: 10.4 µM. For `CCOc1ccc(NC(=O)C2CCN(S(=O)(=O)c3ccc4c(c3)CC(C)N4C(C)=O)CC2)cc1` (stereo not given), the Potency was inconclusive [inhibitor, single point]. In the case of `O=C(Nc1ccccc1-c1ccccc1)c1cccc([N+](=O)[O-])c1`, the Potency is reported as inconclusive [inhibitor, full curve, poor fit]. For `O=C(Nc1ccc[n+](CC(=O)c2cccc3ccccc23)c1)c1ccccc1`, the Potency was inconclusive [inhibitor, single point]. For `O=C1Nc2ccccc2Nc2ccc([N+](=O)[O-])cc21`, the “activity change, negative = inhibition” value was inactive: -30%. With `Cc1ccc(-c2nnn(CC(=O)N(Cc3cccs3)C(C(=O)NCC3CCCO3)c3ccco3)n2)o1` (stereo not given) the Potency was inconclusive [inhibitor, single point]. In the case of `O=C(c1cc(S(=O)(=O)N2CCN(c3ccccc3)CC2)ccc1Cl)N1CCCCCCC1`, the Potency is reported as inconclusive [inhibitor, single point]. With `C/C(=N/NS(=O)(=O)c1ccc(C)cc1)c1cccc(NC(=O)c2cccc(Cl)c2)c1` the “activity change, negative = inhibition” value was inactive: -6.68%. In the case of `CCOCC(=O)N1CCN(c2ccccc2OC)CC1`, the “activity change, negative = inhibition” value is reported as inactive: 5.39%. For `CCOC(=O)N1CCC(Nc2c(Nc3cccc(CC)c3)c(=O)c2=O)CC1`, the Potency was active: 10.4 µM. With `CSc1nnc(CCCCCCCCc2nnc(SC)o2)o1` the Potency was inconclusive [inhibitor, partial curve, poor fit]. In the case of `O=C(N/N=C/c1cccc(Oc2ccccc2)c1)c1ccccc1Br`, the Potency is reported as inconclusive [inhibitor, partial curve, poor fit]. In the case of `O=C(NCC(O)c1ccccc1)c1ccc(Cl)c(S(=O)(=O)N2CCCC2)c1` (stereo not given), the Potency is reported as active: 9.28 µM. In the case of `COc1ccc(N2CCN(c3ccc(NC(=O)C4CCCCC4)cc3C#N)CC2)cc1`, the Potency is reported as inconclusive [inhibitor, full curve]. With `COc1ccc(CCn2c(C3CCCCC3)nc3c(c(=O)c4ccccc4n3C)c2=O)cc1` the Potency was inconclusive [inhibitor, full curve]. With `CCOC(=O)C1CCCN(S(=O)(=O)c2ccc(Cl)nc2)C1` (stereo not given) the Potency was inconclusive [inhibitor, single point].
